Measured values from the supplement of paper PMC8512760.
The list shows a part of the results. Repeats are few or missing, and single values can be far off.

Tested on: SUM-149
Assay: cell viability relative to vehicle (% of vehicle); basal-like triple-negative breast cancer lines; higher = less cytotoxic
Details: 10 µM; 72 h
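Also: stably firefly luciferase-GFP labeled cells in 96-well plates, viability read as luciferase photon flux after d-luciferin addition, treated wells normalized to vehicle wells, single-dose high-throughput screen.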

Structure (SMILES)	cell viability
CCCc1cc(=O)[nH]c(=S)[nH]1 [Propylthiouracil]	113
Cl.NC(N)=NC(=O)Cc1c(Cl)cccc1Cl [Guanfacine hydrochloride]	131
COc1cccc2c1C(=O)c1c(O)c3c(c(O)c1C2=O)CC(O)(C(=O)CO)CC3OC1CC(N)C(O)C(C)O1.Cl (configuration not stated) [Epirubicin HCl]	31.9
Cc1ccccc1N1C(=O)c2cc(S(N)(=O)=O)c(Cl)cc2NC1C (configuration not stated) [Metolazone]	99.5
C#CCC(Cc1cnc2nc(N)nc(N)c2n1)c1ccc(C(=O)NC(CCC(=O)O)C(=O)O)cc1 (configuration not stated) [Pralatrexate]	120
CCNC1CN(CCCOC)S(=O)(=O)c2sc(S(N)(=O)=O)cc21 (configuration not stated) [Brinzolamide]	105
COc1cc2c(cc1OC)CC(=O)N(CCCN(C)CC1Cc3cc(OC)c(OC)cc31)CC2.Cl (configuration not stated) [Ivabradine HCl]	103
CN1C2CCCC1CC(NC(=O)c1nn(C)c3ccccc13)C2 (configuration not stated) [Granisetron]	124
Oc1c(Br)cc(Br)c2cccnc12 [Broxyquinoline]	93.1
CCOC(=O)C1OC1C(=O)NC(CC(C)C)C(=O)NCCC(C)C (configuration not stated)	98.6
C=C1CCC(O)CC1=CC=C1CCCC2(C)C1CCC2C(C)C=CC(C)C(C)C (configuration not stated) [Vitamin D2 (Ergocalciferol)]	117
Cc1c(C(=O)Nc2ccc(N3CC(C)OC(C)C3)nc2)cccc1-c1ccc(OC(F)(F)F)cc1 (configuration not stated) [LDE225 (NVP-LDE225,Erismodegib)]	87
